We go through 44 sequences from the supplement of paper PMC11417369.

The list shows a part of the results.

The test system of this assay is PF3D7_0420300 AP2 domain 1 (GST-tagged). The assay is described as follows: gcPBM binding intensity (ln(normalized median fluorescence intensity)); higher = stronger DNA binding. Put shortly: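 GST-tagged P. falciparum DNA-binding domains, expressed in E. coli (about 25 μg on average), were applied for 1 h to an Agilent 4 × 180k array of primer-extended double-stranded 36-bp intergenic genomic probes plus negative controls. The binding buffer was 1× PBS with 1% milk, 0.2 mg/ml BSA, 0.5% salmon testes DNA and 0.03% Triton X-100. Bound protein was detected with Alexa488 anti-GST antibody and scanned at 488 nm. Binding intensity is the highest Masliner-normalised natural-log median intensity across replicate spots of either probe orientation.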
Take “ATTGTAATCATATGAAGTACTAATATATATTTTAAT [XGTACX_site8350]”: the “gcPBM binding intensity (ln)” value turned out to be 9.13.

“TATAATGTTAAATAATGTACATATATTTTTTTTTTT [XGTACX_site4722]”: the “gcPBM binding intensity (ln)” value came to 9.07.

For “TTACAATTTAATATATGTACATATTTGTGATTTATC [XGTACX_site2911]”, the “gcPBM binding intensity (ln)” value worked out at 9.2. In the case of “TATATATATTAAAAAGTGCATTATTCATATTATATA [GTGCAC_site9400]”, the “gcPBM binding intensity (ln)” value was 9.09. Consider “TTTATTAATAATTATACACACATATAAAATGAATAA [CACACA_site1359]”, for which the “gcPBM binding intensity (ln)” value is 9.33. Consider “AAAATATCTTGTTACTGTACAAATATAAATAAATAC [XGTACX_site3684]”, for which the “gcPBM binding intensity (ln)” value stood at 9.24. Consider “ATATATACGTATGAATGTATATTTGTTTGAATTTTT [CACACA_negctrl_site524]”, for which the “gcPBM binding intensity (ln)” value came to 9.17.

“AATAATAACATACAGACACACACGTAAAAGCACGTG [CACACA_site253]”: the “gcPBM binding intensity (ln)” value was 9.9. Regarding “TTTATATATTAATATGCACACACAAGAAGTAATTAT [CACACA_site9045]”, the “gcPBM binding intensity (ln)” value was 9.68. As to “AATGGGTAAACATACACACACACATATATATATATA [CACACA_site1991]”, the “gcPBM binding intensity (ln)” value is 9.87. On to “TATTAATATTTTTGTTGTACTTAAAAATGATGGTAG [XGTACX_site3501]”, for which the “gcPBM binding intensity (ln)” value stood at 8.97. Turning to “AGTAAAAAAAAAAAAAAAAAAAAAAAAAAAAAAAAA [GTGCAC_negctrl_site147]”, the “gcPBM binding intensity (ln)” value was 8.67.

Regarding “TATTATTTTAATTATTCACACATTATTATAAAAATT [CACACA_site5538]”, the “gcPBM binding intensity (ln)” value came out at 9.12.

For “CATATACACGAACACACACACATATAAATAAATATA [CACACA_site6379]”, the “gcPBM binding intensity (ln)” value came out at 10.1. Consider “GGAATATTAAAAAAATGTACAAAAAATAATATCCAT [XGTACX_site2596]”, for which the “gcPBM binding intensity (ln)” value turned out to be 9.43.

With “GTCAACAAGAATTAAGTGCATAATTTTTTATTAAAT [GTGCAC_site9492]”, the “gcPBM binding intensity (ln)” value worked out at 9.08.

For the sequence “ATATAATAATAATATTGTACAATAAAAAATATATAT [XGTACX_site7350]”, the “gcPBM binding intensity (ln)” value amounted to 9.49. The same measure for “ATACAGATAGGATGCACACATAATTCAAATACAATA [CACACA_site4531]”: 9.58; for “ATGTCAAGAACTGAACGTACAAACTTTGTAATATTG [XGTACX_site8754]”: 9.28. On to “AGTAATAATCGGCATGCATGTCAGTGGTAGTATATA [TGCATGCA_site312]”, for which the “gcPBM binding intensity (ln)” value came to 9.62. Consider “AAATTTTATGTATAATGTACACATAAATTTTTCTTT [XGTACX_site7266]”, for which the “gcPBM binding intensity (ln)” value stood at 9.06. For AAGGAATGCATATAGGTGCTACACATAAAAATAAAA, the “gcPBM binding intensity (ln)” value was found to be 9.42. As for “TACTTTTTTCCTATTATGTTTCTTATTTTTATAAAT [XGTACX_negctrl_site561]”, the “gcPBM binding intensity (ln)” value is 9.6. On to “TTAAGTAGTACATACACACACATATACAAAAAGAAA [CACACA_site3972]”, for which the “gcPBM binding intensity (ln)” value worked out at 9.94. As to “TTTTTTTTTGAAAAAAGTACTTAATTTTTAAGAAGA [XGTACX_site3591]”, the “gcPBM binding intensity (ln)” value amounted to 8.33. Next, “TCTAATAATAAATACACACACATATATATTTATATA [CACACA_site5169]”: 9.75; “ACATACATATATTTATGTACATATATATTTATGATT [XGTACX_site6485]”: 9.21; “TTTTGGTGTATAGTATTAATATAAAATAATTATATT [CACACA_negctrl_site47]”: 9.18. Next, “AATTTATATTTATGTGCATGTAATAACTGTATATAA [TGCATGCA_site349]”: 9.21; “TAAACATTCTTATATAGTACCCATATTAAAATATAC [XGTACX_site8014]”: 9.12. With “TTAGCTTATCATTACTGTACTTTATTCATATATATG [XGTACX_site8008]”, the “gcPBM binding intensity (ln)” value stood at 9.48. “ATTTTTTTTTCTTGTACACACTATTTTATAATTTTA [CACACA_site6102]”: the “gcPBM binding intensity (ln)” value stood at 9.78.

As for “TATAAAAAAAAAAAAAAAAAAAAAAATATATATATA [CACACA_negctrl_site817]”, the “gcPBM binding intensity (ln)” value was determined as 9.02. Turning to “TATTATTTTTCATATGCATGCAAAAATAAAAAAATA [TGCATGCA_site350]”, the “gcPBM binding intensity (ln)” value was determined as 8.84.

For the sequence “ATTTTTTTGTATATATATGACTGGGGATATAATCAA [GTGCAC_negctrl_site274]”, the “gcPBM binding intensity (ln)” value was found to be 9.22. For the sequence “AAAAAAAAAAAAAATTGTACTTAAATATATATATAT [XGTACX_site7604]”, the “gcPBM binding intensity (ln)” value was determined as 9.04. As to “AAATTAAAATAAAATAGTACATATATTTATATTTTT [XGTACX_site1687]”, the “gcPBM binding intensity (ln)” value worked out at 9.13. Consider “TCAATAATAAAAAACACACACAAAAAAAAATAATTA [CACACA_site2798]”, for which the “gcPBM binding intensity (ln)” value is 9.89. For the sequence “AACAAAGTCATACATACATACATATATATATATATA [GTGCAC_negctrl_site632]”, the “gcPBM binding intensity (ln)” value stood at 9.2. Next, “AAAAAAAAAAAAAAAACACACATACACATATATTTT [CACACA_site7768]”: 9.58.

Take “TATATTATTTATAGTAGTACATAAAATATAAATATT [XGTACX_site4417]”: the “gcPBM binding intensity (ln)” value came out at 9.03. “ATAATACATACATACATACACACATATATATATATT [CACACA_site3576]”: the “gcPBM binding intensity (ln)” value turned out to be 9.67. For “TATTGTATTTCATATTGTACTAAAAAAAAAAAAAAG [XGTACX_site6694]”, the “gcPBM binding intensity (ln)” value amounted to 8.89.

As for “TAAAAAAAAAAAAAAACACACATATAAATATTTATA [CACACA_site6702]”, the “gcPBM binding intensity (ln)” value was found to be 9.45.
